In PubChem BioAssay AID493208 (National Center for Advancing Translational Sciences (NCATS), 2011):
Out of some 44,000 compounds screened, about 340 (0.77%) were called active. Not shown: some 5% with an inconclusive outcome. The call rests on the fitted dose curve; in most records, active means well fitted inhibition curve with a large enough effect; inconclusive means small, poorly fitted or top-dose-only effect; inactive means flat fitted curve, though single readings scatter. The list shows a part of the results.

Assay: Acumen qHTS Assay for Inhibitors of the mTORC1 Signaling Pathway in MEF (Tsc2-/-, p53-/-) Cells: Sytravon; further: nearly all actives have a fitted effect of over 50% in size;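 on activity change, negative = inhibition: plate controls were DMSO for no effect and rapamycin for full effect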
Settings: phospho-rpS6 immunofluorescence/PI, 24 h; series mostly up to 38.3 µM; activity change, negative = inhibition: at the top concentration
Method in brief: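 Plate MEFs (Tsc2-/-, p53-/-, empty vector) in DMEM/10% FBS; after 24 h add compound, incubate 24 h at 37 degree Celsius; fix in PFA/TX-100, block, stain phospho-rpS6 and 10 uM PI; scan at 488 nm; report % positive cells.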
Potency means the concentration at half of the fitted maximal effect.

Activity change, negative = inhibition, inactive:
CCCCn1c(SCC(=O)Nc2cccc(OC)c2)nc2c(sc3ccccc32)c1=O -4.24%
COc1cccc(Cn2c(=O)n(CC3CCC(C(=O)N4CCCCC4)CC3)c(=O)c3sccc32)c1 (stereo not given) -6.12%
CCOC(=O)N1CCN(Cc2nc3cc(NC(C)=O)ccc3n2C(C)C)CC1 -31.1%
Cc1cc(C)cc(-n2c(SCC(=O)NCc3ccco3)nc3c([nH]c4ccccc43)c2=O)c1 -19.5%
CC(C)NC(=O)CCn1c(SCc2c(F)cccc2Cl)nc2c(sc3ccccc32)c1=O -2.58%
COc1cccc(NC(=O)CSc2nnc(COc3ccc(Cl)cc3)o2)c1 -0.582%
COc1ccc(NC(=O)NCCc2c(C)nn(C)c2C)c(OC)c1 0%
Cc1nnc2c(N3CCN(c4ccccc4F)CC3)nc3ccccc3n12 2.76%
CCOC(=O)c1cc(-c2ccc(C)cc2)n(CCC(=O)Nc2nc3c(C)cccc3s2)c1C 0.519%
Cc1ccc2c(c1)c(=O)c1ccccc1n2CCCC(=O)Nc1ccc(C)c(F)c1 21.4%
Cc1cc(-n2c(SCC(=O)NCc3ccccc3)nc3ccsc3c2=O)ccc1Cl 1.44%
CCc1cccc(C)c1NS(=O)(=O)c1cc(-c2cc(C)no2)ccc1C 0%
Cc1ccc(-n2nnc(-c3nsc(NC(=O)c4ccccc4)n3)c2C)cc1 -3.52%
Cc1ccc(-n2nc3ccc(NC(=O)c4oc5ccc(C)cc5c4C)cc3n2)cc1 -2.52%
CCOc1ccc(OCC(=O)NCCS(=O)(=O)N2CCN(c3ccc(F)cc3)CC2)cc1 -15.2%
O=C(CCC1CCCC1)N1CCc2c([nH]c3ccccc23)C1c1ccc(Cl)cc1 (stereo not given) 0%
CCCOc1ccccc1C(=O)N1CCCCC1CCN1CCOCC1 (stereo not given) 1.59%
CCN(C(=O)Cn1ncc2c(=O)oc3ccc(C)cc3c21)c1cc(OC)ccc1OC -4.55%
CCOC(=O)C1CCCN(S(=O)(=O)c2ccc(N3CCCCS3(=O)=O)cc2)C1 (stereo not given) 0%
CC1CCc2noc(NC(=O)c3ccccc3[N+](=O)[O-])c2C1 (stereo not given) -11.5%
Cc1cc(C(F)F)n2nc(C(=O)Nc3cc(Cl)ccc3C)nc2n1 1.27%
CN1CCN(C(=O)c2ccc3c(c2)N(Cc2cccc(Cl)c2)C(=O)c2ccccc2S3(=O)=O)CC1 -6.03%
COc1ccccc1CNC(=O)C1CCN(S(=O)(=O)c2c(C)noc2/C=C/c2c(C)cc(C)cc2C)CC1 -9.15%
O=C(Nc1ccc2nc(SCCOc3ccccc3)sc2c1)c1cccs1 -3.47%
COc1cccc(CNC(=O)CSc2ncc3c(n2)-c2cc(Cl)ccc2N(C)S3(=O)=O)c1 0%
CCOc1ccccc1NC(=O)c1sc2nc(C)cc(C)c2c1N 2.76%
Cc1coc2c(C)c3oc(=O)c(CC(=O)NCc4ccccc4)c(C)c3cc12 3.03%
Cc1c(Cl)cccc1NC(=O)CN1C(=O)COc2ccc(S(=O)(=O)N3CCCCCC3)cc21 2.19%
COc1cccc(CNC(=O)CN2C(=O)CSc3c2c(C)nn3-c2ccccc2)c1OC -0.355%
Cc1cccc(C)c1NC(=O)c1nc(S(C)(=O)=O)ncc1N(Cc1ccc(F)cc1)Cc1ccco1 -14.3%
Cc1ccc(Cl)cc1-n1c(=O)c2sc3ccccc3c2n(CC(=O)NC2CCCCC2)c1=O -0.626%
COc1ccc(CNC(=O)Cn2c(=O)oc3cc(S(=O)(=O)N4CCC(C)CC4)ccc32)cc1 -0.233%
CCOC(=O)c1cnc2c(C)cc(C)cc2c1NCCc1ccc(OC)c(OC)c1 0.147%
COc1ccc(C(=O)N(Cc2ccc(N(C)C)cc2)Cc2ccco2)cc1Cl 1.58%
Cc1cc(-c2ccc(C)c(S(=O)(=O)Nc3ccccc3C(F)(F)F)c2)on1 -7.68%
Cc1ccc2c(CC(=O)NCc3ccccc3)coc2c1C -24.1%
O=c1c2sc3ccccc3c2n(Cc2ccccc2Cl)c(=O)n1Cc1ccccc1 -12.6%
Cc1ccc(C)n1-c1c(C(=O)NCC(C)c2ccccc2)sc2ncccc12 (stereo not given) -7.59%
COc1ccc(NC(=O)CCCn2c(=O)c3cccn3c3ccccc32)c(OC)c1 0.686%
COc1ccc(C(=O)Oc2c(Sc3ccc(Cl)cc3)c(C)nn2C(C)(C)C)cc1OC 3.03%
O=C(NCCc1csc(-c2ccc(C(F)(F)F)cc2)n1)C(=O)Nc1cc(F)ccc1F -2.89%
CCCCN(C)CCNC(=O)C1CCCN(S(=O)(=O)c2ccc3c(c2)oc(=O)n3C)C1 (stereo not given) 11.8%
Cc1c(CCNC(=O)Cc2ccc(F)cc2)sc2nc(-c3ccc(F)cc3)nn12 -11.4%
CCc1ccccc1NC(=O)Cn1c(=O)n(CCCS(=O)(=O)C2CCCCC2)c(=O)c2ccccc21 -2.07%
CCOc1ccc(C(=O)Nc2cccc(OCc3cc(=O)n4ccccc4n3)c2)cc1 -11.7%
Cc1ccccc1NS(=O)(=O)c1nnc(NC(=O)c2ccc(Cl)cc2)s1 5.88%
CCOC(=O)c1[nH]c(C)c(CCC(=O)Nc2ccc(C(C)=O)cc2)c1C 0.839%
O=S(=O)(Nc1cccc(-c2ccc(N3CCCCCC3)nn2)c1)c1ccc(F)cc1 0.435%
Cc1cccc(CNS(=O)(=O)c2csc(C(N)=O)c2)c1 3.62%
O=C1C(c2cccc(Br)c2)N(CCc2ccccc2)C(=O)CN1C1CCCCC1 (stereo not given) -0.455%
CCOc1cccc(CNCCNC(=O)c2nonc2N)c1 -10.2%
Cc1ccc(Cl)cc1NC(=O)C1CCCN(S(=O)(=O)c2cccc3cccnc23)C1 (stereo not given) -11.9%
COc1ccccc1CNC(=O)CSc1nc2nc(C)c(Cc3ccccc3Cl)c(C)n2n1 -23.1%
COc1ccc(N2C(=O)CS(=O)(=O)C23C(=O)N(Cc2ccc(F)cc2)c2ccc(C)cc23)cc1 (stereo not given) -14.2%
CCC(=O)N1CCc2cc(Br)cc(S(=O)(=O)N3CCCC(C(=O)Nc4cccc(C)c4C)C3)c21 (stereo not given) -3.52%
CC(CNC(=O)CN1C(=O)COc2ccc(S(=O)(=O)N3CCCCCC3)cc21)c1ccccc1 (stereo not given) -1.73%
COc1ccc(CCNC(=O)c2cccc(-n3cnc4cccnc43)c2C)cc1OC -4.4%
CCCCNC(=O)c1nn(-c2ccc(C)cc2)c(=O)n(C)c1=O 3.8%
Cc1ccccc1CNC(=O)c1cccc(NC(=O)N2CCSc3ncccc32)c1 -4.73%
CCOC(=O)c1c(S(=O)(=O)N2CCCC(C(=O)Nc3cccc(C#N)c3)C2)c(C)n(C)c1C (stereo not given) -1.16%
CC(Oc1ccccc1)C(=O)Nc1ccc(OCc2cc(=O)n3ccsc3n2)cc1 (stereo not given) 0.892%
Cc1cc2c(cc1S(=O)(=O)N(C)CC(=O)Nc1ccc(C#N)cc1)OCC(=O)N2 -2.1%
NS(=O)(=O)c1ccc(CCNC(=O)c2ccc3nc(CCc4ccccc4)oc3c2)cc1 -4.68%
CCOC(=O)c1c(S(=O)(=O)NCC(=O)Nc2ccc(C)c(N(C)C)c2)c(C)n(C)c1C -0.99%
Cn1c(=O)c2c(SCC(=O)NCc3ccco3)nc(-c3cccc(F)c3)nc2n(C)c1=O -8.11%
CCOc1ccc(CC(=O)Nc2c(C(=O)Nc3ccc(OC)cc3OC)oc3ccccc23)cc1 -2.52%
Cc1ccc(S(=O)(=O)c2cn(CC(=O)Nc3ccccc3C)c3cc4c(cc3c2=O)OCO4)cc1 -3.23%
CC(C)c1nc2ccc(C(=O)NCCCN3CCN(c4cccc(Cl)c4)CC3)cc2o1 3.63%
Cc1cccc(N2CCN(C(=O)CN3C(=O)COc4ccc(S(=O)(=O)N5CCC(C)CC5)cc43)CC2C)c1 (stereo not given) -6.5%
CCOC(=O)N1CCN(Cc2nc3cc([N+](=O)[O-])ccc3n2C(C)C)CC1 -16.8%
CCOc1ccc(CNC(=O)c2cnc3sc(N4CCOCC4)nn3c2=O)cc1OC 1.45%
CCOC(=O)C1CCC(CN(Cc2ccc(Cl)cc2)S(=O)(=O)c2cc(Cl)cc(Cl)c2)CC1 (stereo not given) 4.71%
Cc1ccc2scc(N3CCC(C)CC3)c(=O)c2c1 4.38%
COc1cccc(NS(=O)(=O)c2ccc3c(c2)[C@H]2C=CC[C@H]2[C@@H](c2ccccc2Cl)N3)c1 -3.31%
Cc1cccn2c(Nc3ccccc3)c(-c3cccs3)nc12 -1.74%
Cc1[nH]c2ccccc2c1C(c1ccccc1)c1ccc(Cl)s1 (stereo not given) -29.4%
CCOc1ccccc1NC(=O)CCn1cnnn1 -0.0748%
COc1cccc(CNC(=O)Cc2ccc(NC(=O)N3CCSc4ncccc43)cc2)c1OC -5.01%
Cc1ccccc1CNc1nc(N(C)C)nc2c1cnn2C -1.35%
Cc1ccc(NC(=O)C2CCN(S(=O)(=O)c3ccc4[nH]c(=O)ccc4c3)CC2)cc1C 9.26%
CCc1cccc(CC)c1NC(=O)Cn1c(=O)c(-c2cc(C)ccc2NC(C)=O)nc2ccccc21 1.78%
CCc1ccc(CN(Cc2ccco2)c2cnc(S(C)(=O)=O)nc2C(=O)Nc2c(C)cccc2C)cc1 -13%
Cn1c(=NC(=O)c2ccc(S(=O)(=O)N3CCCC3)cc2)sc2cc(F)ccc21 7.28%
CCc1ccccc1NCc1nnc2n1CCCCC2 0.164%
O=C1COc2cc(S(=O)(=O)CCC(=O)N3CCN(c4ccccc4F)CC3)c(Cl)cc2N1 -1.23%
Cc1ccc(-c2nnc(SCC(=O)c3ccc(Cl)cc3)n2-c2ccccc2)cc1 3.55%
Cc1cccc(N2CCN(S(=O)(=O)c3ccc4c(c3)C(C(C)C)C(=O)N4)CC2)c1C (stereo not given) -14.1%
COc1cccc(CN2CCCN(CC(=O)Nc3ccc4c(c3)OCCO4)S2(=O)=O)c1 0%
COc1cccc(N(Cc2nnc3n2CCCCC3)C(=O)Nc2ccccc2)c1 -6.86%
Cc1oc(-c2ccccc2F)nc1CSCC(=O)N1CCN(c2ccccc2)CC1 -10%
Cc1nc2nc(NC(=O)c3ccc(C(C)(C)C)cc3)[nH]n2c(=O)c1Cl -10.3%
CCCCOc1ccc(C(=O)NCCc2sc(-c3ccc(OC)c(OC)c3)nc2C)cc1 -14.6%
CCOc1ccc(CNC(=O)c2ccc3c(c2)N(CC)CCS3)cc1 -0.676%
O=C(Nc1cccc(O)c1)c1cc2nc(-c3ccc(Br)cc3)cc(C(F)(F)F)n2n1 -0.656%

Potency, active:
O=C(Cn1c(=O)c2ccccc2n(CC(=O)Nc2ccc(Cl)cc2)c1=O)NCCc1ccccc1 16.5 µM
